Laboratory results from PubChem BioAssay AID493208 (National Center for Advancing Translational Sciences (NCATS), 2011).
The campaign covered roughly 44,000 compounds. About 340 (0.77%) were called active. About 5% were inconclusive and are not listed. The call rests on the fitted dose curve; in most records, active means well fitted inhibition curve with a large enough effect; inconclusive means small, poorly fitted or top-dose-only effect; inactive means flat fitted curve, though single readings scatter. Some of the results follow.

Assay: Acumen qHTS Assay for Inhibitors of the mTORC1 Signaling Pathway in MEF (Tsc2-/-, p53-/-) Cells: Sytravon;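 further: plate controls were DMSO for no effect and rapamycin for full effect; nearly all actives have a fitted effect of over 50% in size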
Details: phospho-rpS6 immunofluorescence/PI, 24 h; series mostly up to 38.3 µM; activity change, negative = inhibition: at the top concentration
Summary of the method: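 Tsc2-/-, p53-/- mouse embryonic fibroblasts (empty-vector line) exposed to compound 24 hrs at 37 C, fixed, immunostained for phospho-rpS6 and counterstained with propidium iodide. Acumen laser scanning gives % positive cells from Alexa 488/PI ratio, thresholded using 7.5 nM rapamycin; PI count gives viability.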

Activity change, negative = inhibition, inactive:
COCCCNC(=O)c1ccc(Cn2c(=O)c3ccccc3n(Cc3c(C)cc(C)cc3C)c2=O)cc1 6.67%
CCN1CCN(C(c2ccc(SC)cc2)c2c(O)cc(C)n(CCOC)c2=O)CC1 (configuration not stated) -10.8%
CCCCN(CC)C(=O)C1CCCN(c2ncnc3onc(C)c23)C1 (configuration not stated) -8.11%
CCOC(=O)c1c(C)[nH]c(C)c1S(=O)(=O)NCC(=O)NCc1cccc(C)c1 -20.8%
O=c1cc(-c2ccc(F)cc2)nc(SCc2nc(-c3ccc(Cl)cc3)no2)[nH]1 0%
CCOC(=O)c1ccc(CN(Cc2ccc(Br)cc2)S(=O)(=O)c2cccc(Cl)c2C)cc1 2.5%
COc1cc(C(=O)NCC(c2ccc(Cl)cc2)N2CCOCC2)cc(OC)c1OC (configuration not stated) -13.9%
CCOC(=O)CC(NC(=O)Cn1nnc(-c2ccccc2F)n1)c1ccccc1Cl (configuration not stated) -4.02%
CCc1ccc(C2C(C(=O)Nc3ccccc3C)=C(C)Nc3nc(SCc4cccc(OC)c4)nn32)cc1 (configuration not stated) -0.0684%
CC(=O)c1ccc(NC(=O)CSc2nc(=O)n(Cc3ccncc3)c3c2CCC3)cc1 -1.97%
Cc1ccc(N2CCN(C(=O)c3cn(C)c4ccc(S(=O)(=O)N(C)C)cc4c3=O)CC2C)cc1 (configuration not stated) -0.403%
O=C(Cn1c(=O)nc(-c2ccccc2)c2ccccc21)NCc1ccccc1Cl 0%
CCS(=O)(=O)c1ncc(N(Cc2ccco2)Cc2ccccc2F)c(C(=O)Nc2cccc(Cl)c2)n1 -3.81%
O=C(CN1N=C(c2ccc(Cl)cc2)CCC1=O)NCCc1ccccc1 6.86%
CC(C)(Oc1ccc(Br)cc1)C(=O)Nc1cc(-c2nc3ccccc3[nH]2)ccc1Cl -2.34%
Cc1ccc(NC(=O)Cn2nc(Cc3ccncc3)c3ccccc3c2=O)c(Cl)c1 -7.42%
CCOc1ccc(NC(=O)c2oc3ccccc3c2NC(=O)c2ccc(OC)cc2OC)cc1 -0.0549%
COc1ccccc1CNC(=O)CN1N=C(c2ccccc2)CCC1=O 9.84%
COc1ccc(CNC(=O)CS(=O)Cc2nc(-c3cccc(C)c3)oc2C)cc1 (configuration not stated) -9.5%
Fc1ccccc1N1CCN(c2nccn3nc(-c4ccc(Br)cc4)cc23)CC1 5.4%
Cc1ccc(S(=O)(=O)NCC2CCC(C(=O)NCCCOC(C)C)CC2)cc1 (configuration not stated) -6.82%
CCCCN(CC)CCNC(=O)c1cc2c(=O)n(CC)c3ccccc3c2s1 -15.3%
CCCCNc1nc2ccccc2c2nc(-c3ccccc3)nn12 -13.9%
Cc1nc(SCCOc2ccccc2F)[nH]c(=O)c1Cc1ccccc1 4.93%
Cc1ccccc1NC(=O)c1oc2c(c1C)-c1nn(Cc3cccc(Cl)c3)cc1CC2 8.71%
Cc1oc(-c2ccc(Cl)cc2)nc1CN1CCCC(C(=O)NCc2ccccc2)C1 (configuration not stated) -1.05%
Cc1ccc(-n2c(COCC(=O)O)nc3cccnc32)cc1 3.77%
Cc1ccc(/C=C(\C#N)C(=O)Nc2cccc(Br)c2)o1 2.52%
Cc1ccc(Cl)cc1N1CCN(C(=O)c2cc3c(=O)oc4ccccc4c3s2)CC1 1.35%
CCN1CCN(C(c2ccccc2Cl)c2c(O)cc(C)n(CCOC)c2=O)CC1 (configuration not stated) -1.26%
CCCCn1c(=O)nc2n(-c3ccc(Br)cc3)c3ccccc3cc-2c1=O -0.74%
Nc1nn(-c2ccccc2)nc1C(=O)OCc1ccccc1 -0.817%
CC1CCCN(CCCNC(=O)Cn2ncc3c([nH]c4ccccc43)c2=O)C1 (configuration not stated) -4.96%
COc1cccc(C(=O)Nc2nc(-c3ccc(Br)cc3)ns2)c1 1.73%
CCOC(=O)Cc1ccc(NC(=O)N(Cc2ccc(CC)cc2)Cc2cn[nH]c2-c2ccc(OC)cc2)cc1 1.64%
Cc1ccccc1OCCn1c(CCNC(=O)C2CCCCC2)nc2ccccc21 -0.793%
Cc1nc2ccc(S(=O)(=O)NCC(=O)Nc3ccc(F)cc3F)cc2s1 -9.69%
Cc1ccc(S(=O)(=O)N2CCN(Cc3nc4ccc(C)cc4o3)CC2)c(C)c1 0%
Cc1ccc(-n2c(SCC(=O)N3CCCc4ccccc43)nc3c([nH]c4ccccc43)c2=O)cc1 1.23%
CCc1ccccc1-n1nnc(-c2nsc(NC(=O)c3ccc(C)c(C)c3)n2)c1C -4.05%
CCc1ccc(OCCn2c(C3CC(=O)N(Cc4ccc(F)cc4)C3)nc3ccccc32)cc1 (configuration not stated) -0.988%
CC(C)(C)C(=O)Nc1ccccc1C(=O)OCc1cc(=O)n2ccsc2n1 14.1%
COCCCNC(=O)CSC1=Nc2ccccc2C2=NC(CCC(=O)NCc3ccc(OC)cc3)C(=O)N12 (configuration not stated) 0.905%
CCOC(=O)c1c(C)[nH]c(C)c1S(=O)(=O)N(C)CC(=O)Nc1ccc(C)cc1Br 2.47%
Cc1ccc(-c2cn3ccc(C)cc3n2)cc1 -4.42%
CC(C)CCn1c(/C=C/c2ccccc2)nc2ccccc21 -19.7%
Cc1cc(C)cc(NC(=O)CSc2nc3nccnc3c(=O)n2CCc2c[nH]c3ccccc23)c1 -3.07%
O=C(Nc1ccccc1Cl)N1CCSc2ccccc21 0%
CCOC(=O)Cn1c(=O)n(C2CCCCC2)c2nc(-c3c(F)cccc3Cl)nc(C(N)=O)c21 -9.24%
COC(=O)c1scc(-c2ccc(C)cc2)c1S(=O)(=O)Nc1cc(C)ccc1OC -27.1%
Cc1cccc(NC(=O)Cn2c(=O)n(CCCCCC(=O)NCc3ccc4c(c3)OCO4)c(=O)c3sccc32)c1 -8.31%
Cc1ccc(NC(=O)c2cnc3sc(N4CCOCC4)nn3c2=O)cc1N(C)C -1.65%
O=C(c1ccc2c(c1)N(Cc1ccccc1)C(=O)c1ccccc1S2(=O)=O)N1CCN(Cc2ccccc2)CC1 -0.539%
COc1ccc(Nc2nc(C)nc(N)c2S(=O)(=O)c2ccccc2)cc1 1.85%
CCOc1ccc(N2CC(NC(=O)C3CCCC3)CC2=O)cc1 (configuration not stated) -0.396%
CCCNC(=O)C1CCC(Cn2c(=O)c3sccc3n(CC(=O)NCc3cccc(OC)c3OC)c2=O)CC1 (configuration not stated) 3.51%
Cc1ccc(C)c(N2CCN(CCCNC(=O)c3ccc4nc(CCc5ccccc5)oc4c3)CC2)c1 -7.78%
COc1cccc(N2CC(NC(=O)c3cc(Cl)ccc3OC)CC2=O)c1 (configuration not stated) -0.525%
COc1ccc(OC)c(NS(=O)(=O)c2ccc(N3CCCCS3(=O)=O)cc2)c1 0%
CC(=O)c1cccc(NC(=O)CN(c2cc(C)cc(C)c2)S(=O)(=O)c2c(C)noc2C)c1 -2.14%
COc1ccc(C(=O)c2sc(Nc3ccccc3)nc2N)cc1 -16%
N#Cc1c(C(F)(F)F)cc(-c2cccs2)nc1SCC(=O)Nc1cccc(Cl)c1 -15.4%
COc1ccc(-c2onc(C)c2C)cc1S(=O)(=O)N(C)Cc1ccccc1 -11.8%
Cc1cc(-n2ccnc(NCCc3ccc(S(N)(=O)=O)cc3)c2=O)ccc1Br -8.83%
COc1ccc(NC(=O)c2ccco2)cc1NC(=O)c1cc(OC)c(OC)c(OC)c1 1.08%
Cc1cc(C)c2c(CC(=O)N(Cc3ccc(Cl)cc3)Cc3ccco3)coc2c1 -15.2%
O=C(Nc1ccccc1)c1nc[nH]c1C(=O)O -5.87%
CCOC(=O)CSc1nc2cc3c(cc2c(=O)n1Cc1ccc(C(=O)NCCc2ccc(OC)c(OC)c2)cc1)OCO3 -3.55%
COc1cc(OC)c(N(C)C(=O)c2c(C)oc3ncn(CC(C)C)c(=O)c23)cc1Cl 3.68%
Cc1c(-c2ccccc2)nc2c(Cl)cccc2c1C(=O)OCC(=O)c1ccc(F)cc1 -12.3%
Cc1ccc(NC(=O)Cn2cc(S(=O)(=O)Cc3ccc(F)cc3)c3ccccc32)cc1Cl 0%
COc1ccc(-c2cc(C(F)(F)F)nc(SCC(=O)NCCc3ccccc3)n2)cc1 -15.8%
CCOc1ccccc1C(=O)N(Cc1sccc1C)C1CCS(=O)(=O)C1 (configuration not stated) 3.19%
N#Cc1c(-n2ncnc2-c2ccc(F)cc2)sc2c1CCCCC2 2.92%
CCCSc1ncc(Cl)c(C(=O)Nc2sc3c(c2C(=O)OC)CCCC3)n1 2.91%
O=C(CSCc1cnn(-c2ccccc2)c1-n1cccc1)NCc1cccc(Cl)c1 1.38%
O=C(C1CCN(S(=O)(=O)c2ccc(Br)s2)CC1)N1CCN(c2cccc(C(F)(F)F)c2)CC1 -13.4%
Cc1ccc(S(=O)(=O)Nc2ccc3nc(-c4ccc(F)cc4)oc3c2)cc1 -2.02%
CC(C)(C)NC(=O)c1oc2ccccc2c1NC(=O)c1ccccc1F 6.88%
COc1cc(NC(=O)Cn2c(=O)ccc3cc(S(=O)(=O)N4CCCC4)ccc32)cc(OC)c1 1.91%
CCC(C)NC(=O)CCC(=O)N1Cc2ccccc2Oc2ncccc21 (configuration not stated) 1.88%
CC1=C(C(=O)N2CCN(c3ccccc3)CC2)C2(CCCCC2)OC1=O -4.54%
COc1ccc(CNC(=O)c2cc3ccccn3n2)cc1OC -0.681%
Cc1ccc(-n2nc(C)c(C(=O)O)c2-n2cccc2)cc1 -4.05%
Cc1ccc(CNC(=O)c2c(C)oc3ncnc(N4CCOCC4)c23)cc1 3.5%
CCOC(=O)c1c(C)[nH]c(C)c1S(=O)(=O)N(C)CC(=O)Nc1ccc(CC)cc1 7.94%
COc1ccc(/C=C\c2onc(C)c2S(=O)(=O)N2CCC(C(=O)Nc3cccc(OC)c3)CC2)cc1 3.07%
O=C(NCc1ccccc1)c1cc2ccc3cccnc3c2[nH]1 -13.5%
CCc1ccc(-n2c(=O)c3c4c(sc3n(CC(=O)c3ccc(Br)cc3)c2=O)CCC4)cc1 -19.5%
Cc1cccc(C)c1NC(=O)Cn1nnc(C(=O)NCc2ccc(F)cc2)c1N 7.32%
Cc1ccccc1CCNC(=O)C1CCN(S(=O)(=O)c2ccc3c(ccn3C)c2)CC1 -4.83%
O=C(NCC1(c2ccccc2)CCCC1)C(=O)Nc1cccc(Br)c1 -7.93%
Cn1c(=O)c2c(nc(Oc3ccccc3Cl)n2Cc2ccc(C#N)cc2)n(C)c1=O -2.96%
COc1cc(Nc2ncc3c(n2)CCN(Cc2cccc(C)c2)C3)cc(OC)c1 11.4%
CCc1nn(C(C)C(=O)N2CCN(c3ccccc3)CC2)c(=O)c2cc3occc3n12 (configuration not stated) 0.376%
Cc1oc2c(C)c3oc(=O)c(CC(=O)N4CCCCC4)c(C)c3cc2c1C 3.18%
CCCN(CCC)C(=O)C(Cc1ccccc1)NS(=O)(=O)c1ccc2c(c1)c(=O)n(C)c(=O)n2C (configuration not stated) -0.0506%
